# Measured values from PubChem BioAssay AID485360 (National Center for Advancing Translational Sciences (NCATS), 2010).
# Screen size: about 230,000 compounds; about 1,500 (0.65%) were called active. The inconclusive results got no clear call from the source; some entries with a clear call stand among them for comparison. Calls follow the shape of the dose curve; as a rule, active = well fitted inhibition curve with a large enough effect; inconclusive = small, poorly fitted or top-dose-only effect; inactive = no such curve, though single readings can be large or run the other way. Potencies of inconclusive entries are doubtful fits and often do not repeat.
# Target: Lethal(3)malignant brain tumor-like protein 1 (Homo sapiens) (UniProt Q9Y468)
# Assay: qHTS Assay for the Inhibitors of L3MBTL1; also: nearly all actives have a fitted effect of over 60% in size
# Conditions: AlphaScreen L3MBTL1–H3K9me1 peptide binding; series mostly up to 57.1 µM
# How it was run: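 L3MBTL1 (50 nM) pre-complexed 30 min with biotinylated H3(1-15)K9me1 peptide (75 nM), then compounds added for 30 min at room temperature; AlphaScreen streptavidin donor/nickel chelate acceptor beads (10 ug/mL final) read after 30 min dark incubation.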
# Potency is read from the fitted curve at half-maximal effect; tags tell the direction and shape of the fitted curve.
# Sequence of UniProt Q9Y468 (Q9Y468 whole entry, looked up): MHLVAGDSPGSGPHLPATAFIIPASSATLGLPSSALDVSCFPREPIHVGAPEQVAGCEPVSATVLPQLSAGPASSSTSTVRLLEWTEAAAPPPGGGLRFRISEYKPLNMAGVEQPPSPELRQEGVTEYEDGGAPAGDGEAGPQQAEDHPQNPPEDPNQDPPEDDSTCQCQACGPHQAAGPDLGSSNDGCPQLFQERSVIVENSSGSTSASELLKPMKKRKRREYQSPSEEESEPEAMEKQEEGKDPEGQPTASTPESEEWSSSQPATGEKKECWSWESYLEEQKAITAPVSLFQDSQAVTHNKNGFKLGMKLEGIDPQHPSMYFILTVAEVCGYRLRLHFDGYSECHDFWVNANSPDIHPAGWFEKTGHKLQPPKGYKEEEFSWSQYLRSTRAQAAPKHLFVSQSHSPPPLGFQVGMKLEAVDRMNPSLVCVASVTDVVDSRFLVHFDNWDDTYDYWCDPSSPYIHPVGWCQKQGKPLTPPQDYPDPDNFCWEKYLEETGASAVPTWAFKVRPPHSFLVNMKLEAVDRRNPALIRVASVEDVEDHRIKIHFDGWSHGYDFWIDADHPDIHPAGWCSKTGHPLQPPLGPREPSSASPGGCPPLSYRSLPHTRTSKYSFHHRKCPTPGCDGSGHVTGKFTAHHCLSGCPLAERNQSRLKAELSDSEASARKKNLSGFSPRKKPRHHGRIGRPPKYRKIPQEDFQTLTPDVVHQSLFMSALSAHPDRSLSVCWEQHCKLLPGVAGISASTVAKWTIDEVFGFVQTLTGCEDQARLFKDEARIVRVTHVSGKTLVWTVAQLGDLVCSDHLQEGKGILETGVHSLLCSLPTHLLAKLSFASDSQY
row,Compound,Potency
1,COc1ccccc1N1C(=O)NC(=O)/C(=C/c2ccc3c4c(cccc24)CC3)C1=O,"inconclusive: 35.5 µM [inhibitor, single point]"
2,O=C(CN1C(=O)CN=C(c2ccccc2)c2ccccc21)NCc1ccco1,active: 20 µM
3,O=C(/C=C/c1ccc2c(c1)OCO2)c1c(O)n(CCC2=CCCCC2)c(=O)[nH]c1=O,inactive
4,CN(C)c1ccc(/C=C/C=C/c2sc3ccccc3[n+]2C)cc1,"inconclusive: 22.4 µM [inhibitor, single point]"
5,CN(CC(=O)NC(=O)NCc1ccco1)CC(=O)Nc1ccccc1Cl,"inconclusive: 31.6 µM [inhibitor, single point]"
6,CCN1CCN(c2cc(N3CCCC3)c([N+](=O)[O-])cc2F)CC1,inactive
7,C=CCOC(=O)COc1cc(C)cc2oc(=O)c3c(c12)CCC3,inactive
8,NP(=O)(OCCCc1ccccc1)Oc1ccc(Cl)cc1 (stereo not given),active: 14.1 µM
9,NS(=O)(=O)c1ccc(-c2ccc(C=C3C(=O)NC(=S)NC3=O)o2)cc1,"inconclusive: 25.1 µM [inhibitor, single point]"
10,CCOC(=O)c1c(/N=C/C2C(=O)NC(=S)NC2=O)sc(C)c1C,inactive
11,O=c1c2ccccc2nc(/C=C\c2ccccc2[N+](=O)[O-])n1-c1ccccc1O,"inconclusive: 25.1 µM [inhibitor, single point]"
12,Cc1ccccc1CN1CCN(Cc2ccccc2)CC1,inactive
13,CCOC(=O)c1c(NC(NC(=O)CF)C(Cl)(Cl)Cl)sc2c1CCCC2 (stereo not given),inactive
14,CCC(=NCc1ccco1)c1c(O)n(Cc2ccccc2)c(=O)[nH]c1=O,"inconclusive: 1 µM [inhibitor, full curve]"
15,Cc1cc(C)cc(N2C(=O)NC(=O)/C(=C\C=C\c3ccco3)C2=O)c1,"inconclusive: 28.2 µM [inhibitor, partial curve]"
16,CC1(C)CC(CCNCc2ccc3c(c2)OCO3)(Cc2ccccc2)CCO1 (stereo not given),"inconclusive: 8.91 µM [inhibitor, single point]"
17,O=C(CN1CCN(c2ccccc2F)CC1)Nc1cccnc1Cl,"inconclusive: 5.62 µM [inhibitor, full curve]"
18,COc1cc(OC)cc(C(=O)Nc2ccc(Br)cc2C(=O)c2ccccc2)c1,inactive
19,Clc1ccc(CCC(Cn2ccnc2)Sc2c(Cl)cccc2Cl)cc1 (stereo not given),"inconclusive: 39.8 µM [inhibitor, single point]"
20,O=C1NC(=O)N(c2ccccc2)C(=O)/C1=C/c1ccc([N+](=O)[O-])s1,active: 17.8 µM
21,COc1ccc(OCC(=O)N2CCN(C/C=C/c3ccccc3)CC2)cc1,inactive
22,CN1CCN(/N=C/c2c(O)n(C)c(=O)n(C)c2=O)CC1,"inconclusive: 8.91 µM [inhibitor, partial curve]"
23,CCn1c(O)c(/C=N/NC(=O)c2ccncc2)c(=O)[nH]c1=S,"inconclusive: 25.1 µM [inhibitor, partial curve]"

row,Compound,Potency
1,OCC#CC[N+]1(CC#Cc2ccccc2)CCCC1,"inconclusive: 0.708 µM [inhibitor, single point]"
2,CN1CCN(C(=O)COc2ccc(Oc3ccccc3)cc2)CC1,"inconclusive: 0.282 µM [inhibitor, full curve]"
3,O=C1/C(=C/c2ccc(F)cc2)Oc2cc(OC(=O)N3CCOCC3)ccc21,"inconclusive: 0.794 µM [inhibitor, single point]"
4,COc1cc(OC)c(OC)cc1CNCCc1ccc(OC)c(OC)c1,inactive
5,CC(C)(C)c1cc([N+](=O)[O-])cc(C(C)(C)C)c1O,"inconclusive: 25.1 µM [inhibitor, partial curve]"
6,CCCCC(=O)N/N=C/c1c(O)n(CCCC)c(=S)[nH]c1=O,"inconclusive: 39.8 µM [inhibitor, single point]"
7,CCCCCCCSc1cc(OC)c(CCN(C)C)cc1OC,"inconclusive: 39.8 µM [inhibitor, single point]"
8,COc1cc(/C=C2/C(=O)N(c3ccccc3)N=C2C)ccc1OS(=O)(=O)c1ccccc1,"inconclusive: 15.8 µM [inhibitor, partial curve]"
9,O=C1NC(=O)C(CCc2ccncc2)(CCc2ccncc2)C(=O)N1Cc1ccc(F)cc1,inactive
10,Cc1cc(Br)c(NC(=O)CN2CC=C(c3ccccc3)CC2)c(Br)c1,inactive
11,NP(=O)(OCCCCc1ccccc1)Oc1ccccc1Cl (stereo not given),"inconclusive: 25.1 µM [inhibitor, single point]"
12,O=C(OCC(=O)N1CCN(c2ccccc2)CC1)c1cnc(Cl)c(Cl)c1,"inconclusive: 0.794 µM [inhibitor, full curve, poor fit]"
13,CCn1ccnc1CN1CCCC(C(=O)c2ccc(OC)cc2OC)C1 (stereo not given),inactive
14,CC1[C@H]2Cc3ccc(O)cc3[C@]1(C)CCN2CCc1ccccc1 (stereo not given in full),"inconclusive: 31.6 µM [inhibitor, single point]"
15,Cc1cc(=O)oc2cc(OCC(=O)N3C[C@H]4C[C@@H](C3)c3cccc(=O)n3C4)c(Cl)cc12,"inconclusive: 5.01 µM [inhibitor, single point]"
16,OC(CCNCCc1c[nH]c2ccccc12)C(F)(F)F (stereo not given),"inconclusive: 5.01 µM [inhibitor, full curve, poor fit]"
17,CN(C)c1ccc(/C=C/c2cc[n+](C)c3ccccc23)cc1,"inconclusive: 25.1 µM [inhibitor, partial curve, poor fit]"
18,CC(C)n1c(=O)c(C=Nc2cccc([N+](=O)[O-])c2)c(O)n(CCc2ccccc2)c1=O,inactive
19,CN1CCN(c2nc3ccccn3c(=O)c2C=C2C(=O)N(C)C(=O)N(C)C2=O)CC1,"inconclusive: 5.01 µM [inhibitor, single point]"
20,CCCCOCCCn1c(N)c(C(=O)OCCOC)c2nc3ccccc3nc21,inactive
21,O=C1NC(=O)N(c2ccccc2)C(=O)/C1=C\C=C\c1ccccc1,"inconclusive: 0.794 µM [inhibitor, single point]"
22,CCCCC(CC)COP(=O)(OCC(CC)CCCC)OCC(CC)CCCC (stereo not given),"inconclusive: 6.31 µM [inhibitor, single point]"
